# According to PubChem BioAssay AID504845 (National Center for Advancing Translational Sciences (NCATS), 2011):
# Where “and” joins values, the source holds several entries; their conditions need not be identical. Equal values may be shown once. In all, about 390,000 compounds went through this assay and about 150 (0.038%) were called active. This list was built around the results that the source calls inconclusive (neither active nor inactive); the mix of calls is not that of the screen. Calls follow the shape of the dose curve; as a rule, active = well fitted inhibition curve with a large enough effect; inconclusive = small, poorly fitted or top-dose-only effect; inactive = no such curve, though single readings can be large or run the other way. A potency beside an inconclusive call is a rough fit, not a confirmed value.
# Target: Regulator of G-protein signaling 4 (Homo sapiens) (UniProt P49798)
# Chain of UniProt P49798 (P49798 whole entry, looked up): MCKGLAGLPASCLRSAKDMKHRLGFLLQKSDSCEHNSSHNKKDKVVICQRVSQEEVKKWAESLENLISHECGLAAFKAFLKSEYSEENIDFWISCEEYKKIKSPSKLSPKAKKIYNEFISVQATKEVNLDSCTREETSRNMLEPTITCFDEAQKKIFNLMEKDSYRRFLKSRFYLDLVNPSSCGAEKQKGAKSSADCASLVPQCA
# Assay: Inhibitors of Regulator of G Protein Signaling (RGS) 4: qHTS; also: nearly all actives have a fitted effect of over 75% in size
# Settings: Transcreener GDP fluorescence polarization, RGS4-accelerated GTP hydrolysis; series mostly up to 114 µM
# How it was run: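 MLSMR compounds (23 nl, pin-transferred) preincubated 10 min at room temperature with a 500nM (2x) first reagent, then RGS4 at 900nM (2x) plus Transcreener GDP mix added; fluorescence polarization (620/688 nm) read before and after 90 min at 30 °C.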
# % is scaled to controls: 0 for no effect and ±100 for the full control effect; potency is read from the fitted curve at half-maximal effect; tags tell the direction and shape of the fitted curve.
SMILES,Potency,"activity change, negative = inhibition"
O=[N+]([O-])c1cccc(C=NN=C2c3ccccc3-c3ccccc32)c1,"inconclusive: 89.1 µM [inhibitor, single point]",–
Cn1ccs/c1=N\C(=O)Nc1cccc(Cl)c1,–,inactive: -20.5% [at 11.4 µM]
O=c1c(O)c(-c2cc(O)c(O)c(O)c2)oc2cc(O)cc(O)c12,"inconclusive: 17.8 µM [inhibitor, partial curve, poor fit] and inconclusive: 2.99 µM [inhibitor, full curve, poor fit]",–
CC(Sc1nnc2c(n1)C1(C)CCC2C1(C)C)C(=O)Nc1ccccc1 (stereo unspecified),"inconclusive: 70.8 µM [inhibitor, single point]",–
C=CCOc1ccc(Br)cc1/C=C1\NC(=S)N(C(C)=O)C1=O,"inconclusive: 35.5 µM [inhibitor, partial curve, poor fit]",–
CCC(=O)N1CCN(CCN=CC2=C(O)CC(c3ccc(OC)cc3)CC2=O)CC1 (stereo unspecified),"inconclusive: 70.8 µM [inhibitor, single point]",–
N#CC1=C2SCN(C3CCCCC3)CN2C(=O)CC1c1ccc(Cl)cc1 (stereo unspecified),"inconclusive: 44.7 µM [inhibitor, partial curve, poor fit]",–
CCN(CC)S(=O)(=O)c1ccc(N2CCOCC2)c(NC(=S)NC(=O)c2ccco2)c1,"inconclusive: 20 µM [inhibitor, full curve, poor fit]",–
Nc1nc2ccc(S(=O)(=O)N3CCCCC3)cc2s1,"inconclusive: 31.6 µM [inhibitor, full curve, poor fit]",–
Cc1ccc(C(=O)Nc2cccc(C(F)(F)F)c2)cc1NC(=O)c1nccnc1N,"inconclusive: 56.2 µM [inhibitor, partial curve, poor fit]",–
CCOC(=O)c1c(N)sc(C(=O)N2CCCC2)c1C,"inconclusive: 70.8 µM [inhibitor, single point]",–
NC(=O)C1(N2CCCCC2)CCN(Cc2ccccc2Cl)CC1,inactive,–
O=C(c1ccc(N2CCN(S(=O)(=O)c3ccccc3)CC2)c([N+](=O)[O-])c1)N1CCOCC1,inactive,–
Cc1nc(C)c(-c2csc(N)n2)s1,"inconclusive: 89.1 µM [inhibitor, single point]",–
CC(=O)N1CCN(c2ccc(NCc3ccc(C)s3)cc2)CC1,"inconclusive: 50.1 µM [inhibitor, partial curve, poor fit]",–
CC(=O)c1cccc(CN2CCCC(C(=O)Nc3ccc(-c4ccco4)cc3)C2)c1 (stereo unspecified),"inconclusive: 44.7 µM [inhibitor, partial curve, poor fit]",–
c1ccc(Nc2ccnc(Nc3ccccc3)n2)cc1,inactive,–
Cc1ccc(NC(=S)N2CCC(c3ccc(C)cc3)C2)cc1 (stereo unspecified),"inconclusive: 79.4 µM [inhibitor, partial curve, poor fit]",–
CC(C)NC(=O)N1CCN(S(=O)(=O)c2ccc3c(ccn3C)c2)CC1,inactive,–
O=C(C1CCCO1)N1CCN(Cc2c(O)ccc3ccccc23)CC1 (stereo unspecified),"inconclusive: 79.4 µM [inhibitor, partial curve, poor fit]",–
Cc1ccc(C(=O)c2cn(CC(=O)NCc3ccccc3Cl)c3nc(C)ccc3c2=O)cc1,"inconclusive: 70.8 µM [inhibitor, partial curve, poor fit]",–

SMILES,Potency,"activity change, negative = inhibition"
CC(C)c1ccc(C2CC(=O)N3CN(Cc4ccco4)CSC3=C2C#N)cc1 (stereo unspecified),"inconclusive: 100 µM [inhibitor, partial curve, poor fit]",–
CCOC(=O)c1sc(NC(=O)C2c3ccccc3Oc3ccccc32)c(C#N)c1C,"inconclusive: 100 µM [inhibitor, partial curve, poor fit]",–
COc1ccc(OC)c2[nH]c(=O)c(CCNC(=O)c3cccs3)cc12,inactive,–
CN1C[C@@H]2C(c3ccccc3)C3(c4cccnc4)CC2(C3)[C@H]1c1ccccc1 (stereo partly specified),inactive,–
COc1ccc(CNC(=O)C2CCN(S(C)(=O)=O)CC2)cc1,"inconclusive: 50.1 µM [inhibitor, partial curve, poor fit]",–
CCc1nnc(NC(=O)CSc2nc(-c3ccccc3)cc(-c3ccc(F)cc3)c2C#N)s1,inactive,–
Cc1cccn2c(=O)c3cc(C(=O)NCC4CCCO4)c(=N)n(C4CCCC4)c3nc12 (stereo unspecified),inactive,–
CC(=O)Cc1nsc(NC(=O)c2ccccc2)n1,"inconclusive: 79.4 µM [inhibitor, partial curve, poor fit]",–
Cc1occc1C(=O)N/N=C/C(Br)=C/c1ccccc1,inactive,–
CC1CN(C(=O)c2cn3ccccc3n2)CC(C)O1 (stereo unspecified),"inconclusive: 89.1 µM [inhibitor, single point]",–
CCn1cc(C(=O)O)c(=O)c2cc(F)c(N/N=C/c3ccccc3)cc21,inactive,–
CCN1CCN(C(=S)c2ccc(OC)cc2)CC1,"inconclusive: 50.1 µM [inhibitor, partial curve, poor fit]",–
O=C(Nc1cccc(Br)c1)c1ccc2nc(N3C(=O)CCC3=O)sc2c1,"inconclusive: 50.1 µM [inhibitor, partial curve, poor fit]",–
COc1ccccc1NC(=O)Nc1ccnn1C1CCN(C(=O)c2cscn2)CC1,"inconclusive: 50.1 µM [inhibitor, partial curve, poor fit]",–
CCOC(=O)c1sc(NC(=O)CSc2nc(C)cc(C(F)(F)F)n2)c(C#N)c1C,"inconclusive: 20 µM [inhibitor, full curve, poor fit]",–
O=C(/C=C/c1ccccc1)c1ccccc1,"inconclusive: 70.8 µM [inhibitor, partial curve, poor fit]",–
Cc1ccc(-c2csc3nc4c5ccccc5c(NCCCN(C)C)nn4c(=O)c23)cc1,inactive,–
Cc1cc(C)[n+](C)n1CC(O)Cn1c2ccccc2c2ccccc21 (stereo unspecified),"inconclusive: 28.2 µM [inhibitor, full curve, poor fit]",–
CC1(C)Cc2c(c(-c3ccco3)nc3sc4c(NCCO)ncnc4c23)CO1,inactive,–
COc1ccc(C(=O)NC(=S)NNC(=O)c2ccc(NC(=O)C(C)C)cc2)cc1,"inconclusive: 89.1 µM [inhibitor, single point]",–
